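Tested at 5 concentrations; 48 h exposure; 96-well plates; endpoints linearly interpolated, else capped at highest concentration. At the GI50, growth is halved.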 Certain results were filed several times, with different values. The other results are left out here. There may be further records. A record mostly stands for its own series of concentrations, not given here; a value can be the end of its range.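 TGI marks complete inhibition of growth.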
Assays:
Assay in all cases: growth of human tumour cells (NCI), 48 h
[1] = test system: OVCAR-3 ovarian
[2] = test system: DU-145 prostate
[3] = test system: MDA-MB-231 breast
[4] = test system: T-47D breast

Compound | GI50 [1] | TGI [2] | TGI [3] | TGI [4]
O=[N+]([O-])c1ccc(NC(=S)N/N=C(\c2ccccc2)c2ccccn2)cc1 | 8.11 nM and 1.43 µM |  |  | 
CCCC(=O)Nc1cc(/C=C/C(=O)N2C[C@H]3C[C@@]34C2=CC(=O)c2[nH]cc(C)c24)n(C)c1 |  | < 2.5 nM and 1.91 µM | 3.68 nM and 130 nM | 8.24 nM and 480 nM

From PubChem BioAssay (NCI)
